# Test results from paper PMC5892938.
# This is one part of the list. At the low end of the ranking, values are background and their order means little.
# Target: GST-SBP-SLBP (stem-loop binding protein) (UniProt Q14493)
# Test: targeted RNA Bind-n-Seq;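 also: DESeq read counts versus GST-SBP nonspecific binding control pulldown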
# Conditions: RBNS binding buffer: 25 mM Tris pH 7.5, 150 mM KCl, 3 mM MgCl2, 0.1% Tween, 0.5 mg/mL BSA, 1 mM DTT; 27 nM protein, 750 pM RNA pool; temperature not stated; high values mean tight binding
row,Sequence,binding signal (log2 fold change)
1,GGUCACGUCUCAAUCAACUCCCUCGAGGGGGGGAAAACCCCUUUACCCUCAUCAUCAACAGCUCGCAGUCAAG,0.187
2,GGUCACGUCUCAAUCAACUCAUCUCCCAGGGAAACCCCUGGCUUACUCAACAGCUCGCAGUCAAG,0.169
3,GGUCACGUCUCAAUCAACUCUUUCCCCAGGGAAAGCCCUGGCAUUCUCAACAGCUCGCAGUCAAG,-0.0176
4,GGUCACGUCUCAAUCAACUCUCCAGAGGGGGGGAAAACCCCUUUACCCUCAACAUCAACAGCUCGCAGUCAAG,0.304
5,GGUCACGUCUCAAUCAACUCUUCCUCCAGGGAAAGCCCUGGUAAUGUCAACAGCUCGCAGUCAAG,-0.211
6,GGUCACGUCUCAAUCAACUCAACUUCAGGAGUUUACUCCUGCUUUCUCAACAGCUCGCAGUCAAG,0.0425
7,GGUCACGUCUCAAUCAACUCAAACGAGGGGGGGAAAACCCCUUUACCCUCAACCUCAACAGCUCGCAGUCAAG,-0.0512
8,GGUCACGUCUCAAUCAACUCUUUCCCCAGGGAAAUCCCUGGUAAUCUCAACAGCUCGCAGUCAAG,0.116
9,GGUCACGUCUCAAUCAACUCAAUCUCAGGAGUUUUCUCCUGUAUGUUCAACAGCUCGCAGUCAAG,0.199
10,GGUCACGUCUCAAUCAACUCACACGAGGGGGGGAAAACCCCUUUACCCUCUCAAUCAACAGCUCGCAGUCAAG,0.0404
11,GGUCACGUCUCAAUCAACUCUACUUCCAGGGAAACCCCUGGCAAUCUCAACAGCUCGCAGUCAAG,-0.177
12,GGUCACGUCUCAAUCAACUCAUCUUCAGGAGUUUCCUCCUGCUAAUUCAACAGCUCGCAGUCAAG,0.0162
13,GGUCACGUCUCAAUCAACUCUAUCGAGGGGGGGAAAACCCCUUUACCCUCAACAUCAACAGCUCGCAGUCAAG,-0.0975
14,GGUCACGUCUCAAUCAACUCAAUUUCCAGGGAAAACCCUGGUAUUUUCAACAGCUCGCAGUCAAG,-0.243
15,GGUCACGUCUCAAUCAACUCAAACGAGGGGGGGAAAACCCCUUUACCCUCAAGAUCAACAGCUCGCAGUCAAG,-0.0454
16,GGUCACGUCUCAAUCAACUCUUCAGAGGGGGGGAAAACCCCUUUACCCUCCGUUUCAACAGCUCGCAGUCAAG,0.44
17,GGUCACGUCUCAAUCAACUCUACUUCAGGAGUUUCCUCCUGUUAUUUCAACAGCUCGCAGUCAAG,0.165
18,GGUCACGUCUCAAUCAACUCAGUCUCAGGAGUUUGCUCCUGCUAUCUCAACAGCUCGCAGUCAAG,0.114
19,GGUCACGUCUCAAUCAACUCUUAAGAGGGGGGGAAAACCCCUUUGCCCUCCACAUCAACAGCUCGCAGUCAAG,0.0163
20,GGUCACGUCUCAAUCAACUCUUUCUCCAGGGAAAUCCCUGGUUAAUUCAACAGCUCGCAGUCAAG,-0.0687
21,GGUCACGUCUCAAUCAACUCCACAGAGGGGGGGAAAACCCCUUUACCCUCAAAAUCAACAGCUCGCAGUCAAG,-0.154
22,GGUCACGUCUCAAUCAACUCAUUUUCCAGGGAAAGCCCUGGUAUUUUCAACAGCUCGCAGUCAAG,0.0418
23,GGUCACGUCUCAAUCAACUCUCACGAGGGGGGGAAAACCCCUUUGCCCUCAAUUUCAACAGCUCGCAGUCAAG,0.305
24,GGUCACGUCUCAAUCAACUCCCAAGAGGGGGGGAAAACCCCUUUGCCCUCAACCUCAACAGCUCGCAGUCAAG,-0.443
25,GGUCACGUCUCAAUCAACUCCCUAGAGGGGGGGAAAACCCCUUUGCCCUCCAUAUCAACAGCUCGCAGUCAAG,-0.443

row,Sequence,binding signal (log2 fold change)
1,GGUCACGUCUCAAUCAACUCAUUUCCAGGAGUUUCCUCCUGCUUUUUCAACAGCUCGCAGUCAAG,0.0415
2,GGUCACGUCUCAAUCAACUCAAUCUCAGGAGUUUUCUCCUGCAAAUUCAACAGCUCGCAGUCAAG,0.0731
3,GGUCACGUCUCAAUCAACUCAUCGCCCAGGGAAAUCCCUGGUAUUUUCAACAGCUCGCAGUCAAG,0.0577
4,GGUCACGUCUCAAUCAACUCAAUCUCAGGAGUUUACUCCUGCAUAGUCAACAGCUCGCAGUCAAG,0.214
5,GGUCACGUCUCAAUCAACUCCUUAGAGGGGGGGAAAACCCCUUUGCCCUCCGUAUCAACAGCUCGCAGUCAAG,0.307
6,GGUCACGUCUCAAUCAACUCAGUCUCCAGGGAAAUCCCUGGCAAUUUCAACAGCUCGCAGUCAAG,0.0962
7,GGUCACGUCUCAAUCAACUCUUUUCCCAGGGAAAGCCCUGGCUUUUUCAACAGCUCGCAGUCAAG,0.0822
8,GGUCACGUCUCAAUCAACUCCCUAGAGGGGGGGAAAACCCCUUUACCCUCAAAAUCAACAGCUCGCAGUCAAG,-0.123
9,GGUCACGUCUCAAUCAACUCUACUCCCAGGGAAAGCCCUGGUAAACUCAACAGCUCGCAGUCAAG,-0.0284
10,GGUCACGUCUCAAUCAACUCAAUCGCAGGAGUUUACUCCUGGUUUUUCAACAGCUCGCAGUCAAG,0.0811
11,GGUCACGUCUCAAUCAACUCUCUAGAGGGGGGGAAAACCCCUUUACCCUCCACUUCAACAGCUCGCAGUCAAG,0.00476
12,GGUCACGUCUCAAUCAACUCCAUCGAGGGGGGGAAAACCCCUUUACCCUCAUACUCAACAGCUCGCAGUCAAG,-0.0704
13,GGUCACGUCUCAAUCAACUCUAGUCCCAGGGAAAUCCCUGGUUUUUUCAACAGCUCGCAGUCAAG,-0.201
14,GGUCACGUCUCAAUCAACUCAUCUUCAGGAGUUUCCUCCUGCUUACUCAACAGCUCGCAGUCAAG,-0.149
15,GGUCACGUCUCAAUCAACUCAAUUUCCAGGGAAAACCCUGGCAUAGUCAACAGCUCGCAGUCAAG,0.0353
16,GGUCACGUCUCAAUCAACUCUUUUCCCAGGGAAAACCCUGGUAUUUUCAACAGCUCGCAGUCAAG,0.0111
17,GGUCACGUCUCAAUCAACUCAUCCUCCAGGGAAAUCCCUGGCUUAUUCAACAGCUCGCAGUCAAG,-0.0358
18,GGUCACGUCUCAAUCAACUCUAUCCCCAGGGAAACCCCUGGUUAAUUCAACAGCUCGCAGUCAAG,0.0663
19,GGUCACGUCUCAAUCAACUCUUCUUCAGGAGUUUACUCCUGUUAUUUCAACAGCUCGCAGUCAAG,0.0783
20,GGUCACGUCUCAAUCAACUCUAUUCCCAGGGAAAGCCCUGGUAUUCUCAACAGCUCGCAGUCAAG,0.307
21,GGUCACGUCUCAAUCAACUCAUUCCCCAGGGAAAACCCUGGUUUUUUCAACAGCUCGCAGUCAAG,-0.0655
22,GGUCACGUCUCAAUCAACUCUUCUCCCAGGGAAAGCCCUGGCAAUUUCAACAGCUCGCAGUCAAG,0.428
23,GGUCACGUCUCAAUCAACUCUUUCUCAGGAGUUUGCUCCUGCAUAUUCAACAGCUCGCAGUCAAG,0.0916
24,GGUCACGUCUCAAUCAACUCAGUUUCCAGGGAAACCCCUGGCUUUUUCAACAGCUCGCAGUCAAG,0.0285
25,GGUCACGUCUCAAUCAACUCAUCUUCCAGGGAAACCCCUGGCUAACUCAACAGCUCGCAGUCAAG,-0.0873

row,Sequence,binding signal (log2 fold change)
1,GGUCACGUCUCAAUCAACUCUUCUUCCAGGGAAAACCCUGGCUAUUUCAACAGCUCGCAGUCAAG,0.117
2,GGUCACGUCUCAAUCAACUCUUUCCCCAGGGAAAACCCUGGCUAAUUCAACAGCUCGCAGUCAAG,0.191
3,GGUCACGUCUCAAUCAACUCAUCUUCCAGGGAAAACCCUGGUAAUCUCAACAGCUCGCAGUCAAG,-0.0443
4,GGUCACGUCUCAAUCAACUCAUUUUCAGGAGUUUGCUCCUGUAUAUUCAACAGCUCGCAGUCAAG,0.193
5,GGUCACGUCUCAAUCAACUCUACUUCAGGAGUUUCCUCCUGCAUACUCAACAGCUCGCAGUCAAG,0.0781
6,GGUCACGUCUCAAUCAACUCAGUCCCCAGGGAAAACCCUGGCAUUUUCAACAGCUCGCAGUCAAG,-0.0865
7,GGUCACGUCUCAAUCAACUCAACUUCCAGGGAAAGCCCUGGUUAACUCAACAGCUCGCAGUCAAG,0.101
8,GGUCACGUCUCAAUCAACUCUACAGAGGGGGGGAAAACCCCUUUACCCUCGAAAUCAACAGCUCGCAGUCAAG,-0.574
9,GGUCACGUCUCAAUCAACUCUAUCCCAGGAGUUUCCUCCUGCUUUUUCAACAGCUCGCAGUCAAG,0.204
10,GGUCACGUCUCAAUCAACUCUUCGUCAGGAGUUUCCUCCUGCAAAUUCAACAGCUCGCAGUCAAG,-0.0316
11,GGUCACGUCUCAAUCAACUCUAUCCCAGGAGUUUCCUCCUGCAUUCUCAACAGCUCGCAGUCAAG,0.0925
12,GGUCACGUCUCAAUCAACUCUCCAGAGGGGGGGAAAACCCCUUUGCCCUCAUUUUCAACAGCUCGCAGUCAAG,-0.378
13,GGUCACGUCUCAAUCAACUCAAUCUCAGGAGUUUCCUCCUGUAAACUCAACAGCUCGCAGUCAAG,0.196
14,GGUCACGUCUCAAUCAACUCAAUCCCAGGAGUUUACUCCUGCUAUCUCAACAGCUCGCAGUCAAG,0.0657
15,GGUCACGUCUCAAUCAACUCAUCCCCCAGGGAAAACCCUGGUAUUUUCAACAGCUCGCAGUCAAG,-0.0851
16,GGUCACGUCUCAAUCAACUCGUUUUCAGGAGUUUGCUCCUGCAUUUUCAACAGCUCGCAGUCAAG,-0.0256
17,GGUCACGUCUCAAUCAACUCUACUUCAGGAGUUUACUCCUGCAUAUUCAACAGCUCGCAGUCAAG,0.167
18,GGUCACGUCUCAAUCAACUCAAUCCCCAGGGAAAUCCCUGGCAUAGUCAACAGCUCGCAGUCAAG,0.206
19,GGUCACGUCUCAAUCAACUCAGUUUCCAGGGAAAGCCCUGGCAUAUUCAACAGCUCGCAGUCAAG,-0.074
20,GGUCACGUCUCAAUCAACUCUUUUUCAGGAGUUUUCUCCUGCUAUCUCAACAGCUCGCAGUCAAG,0.0163
21,GGUCACGUCUCAAUCAACUCAUCUCCAGGAGUUUCCUCCUGUAAAUUCAACAGCUCGCAGUCAAG,0.222
22,GGUCACGUCUCAAUCAACUCAUUCUCAGGAGUUUCCUCCUGUUUUUUCAACAGCUCGCAGUCAAG,-0.0786
23,GGUCACGUCUCAAUCAACUCAAAAGAGGGGGGGAAAACCCCUUUACCCUCGAAAUCAACAGCUCGCAGUCAAG,-0.33
24,GGUCACGUCUCAAUCAACUCAGUCUCCAGGGAAAGCCCUGGCAUUCUCAACAGCUCGCAGUCAAG,-0.133
